According to the supplement of paper PMC4604168 (melanoma cell lines):
This is one part of the list. Most values come without repeats; read them as rough.

What was measured:
Assay in all cases: cell count relative to DMSO control; melanoma cells; higher = more viable cells
Settings in all cases: library dose: low library concentration; 72 h
[1] = tested on: MZ2-MEL
[2] = tested on: MeWo
[3] = tested on: RPMI7951
[4] = tested on: RVH-421
[5] = tested on: SkMel28
[6] = tested on: SkMel30
[7] = tested on: SkMel5
[8] = tested on: UACC257
[9] = tested on: UACC62
[10] = tested on: SkMel2
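Also: cell number obtained by counting DAPI-stained nuclei in high-throughput microscope images with image analysis software, screen run in 1,536-well plates.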

SMILES | cell count [1] [%] | cell count [2] [%] | cell count [3] [%] | cell count [4] [%] | cell count [5] [%] | cell count [6] [%] | cell count [7] [%] | cell count [8] [%] | cell count [9] [%] | cell count [10] [%]
C[C@@H]1CCN(C(=O)CC#N)C[C@@H]1N(C)c1ncnc2[nH]ccc12 + Cn1cc(/C=C2\C(=O)Nc3cccnc32)c2ccccc21 [GW441756] (first compound 1 µM, partner dose 0.4 µM) | 96.8 | 94 | 97.2 | 119 | 89.1 | 86.8 | 97.7 | 102 | 94.5 | 
C[C@@H]1CCN(C(=O)CC#N)C[C@@H]1N(C)c1ncnc2[nH]ccc12 + CCN(CC)CCCCNc1ncc2cc(-c3cc(OC)cc(OC)c3)c(NC(=O)NC(C)(C)C)nc2n1 [PD173074] (first compound 1 µM, partner dose 0.1 µM) | 103 | 110 | 92.7 | 104 | 82 | 99 | 116 | 97.2 | 96.3 | 
C[C@@H]1CCN(C(=O)CC#N)C[C@@H]1N(C)c1ncnc2[nH]ccc12 + N#Cc1c(O)c2c(-c3ccc(-c4ccccc4O)cc3)csc2[nH]c1=O [A769662] (first compound 1 µM, partner dose 2 µM) | 107 | 108 | 130 | 88.1 | 89.2 | 103 | 111 | 112 | 98.5 | 
O=C(O)c1ccc(-c2c[nH]c3ncc(-c4ccccc4)cc23)cc1C1CCCC1 + c1cc(-c2cnn3cc(-c4ccc(OCCN5CCCCC5)cc4)cnc23)ccn1 [Dorsomorphin] (first compound 0.16 µM, partner dose 0.4 µM) | 95.2 | 86.6 | 99.9 | 132 | 96.4 | 108 | 93.3 | 90 | 99.9 | 
O=C(Nc1cccc(Cl)c1)Nc1ncc(CCNc2ncnc3ccsc23)s1 + CC(C)CCN1c2nc(Nc3cc(F)c(O)c(F)c3)ncc2N(C)C(=O)C1C [BID1870] (first compound 0.0008 µM, partner dose 0.2 µM) | 103 | 98.2 | 103 | 109 | 99.6 | 84.6 | 86.2 | 77.8 | 91.2 | 
O=c1[nH]nc(Sc2ncc([N+](=O)[O-])s2)n1-c1ccc2c(c1)OCCO2 + C[C@]1(O)C[C@@H](c2nc(-c3ccc4ccc(-c5ccccc5)nc4c3)c3c(N)nccn32)C1 [OSI906] (first compound 0.2 µM, partner dose 0.4 µM) | 84.4 | 101 | 106 | 113 | 86.6 | 101 |  |  | 76.4 | 81.6
COc1cc(Nc2ncc(F)c(Nc3ccc4c(n3)NC(=O)C(C)(C)O4)n2)cc(OC)c1OC [Tamatinib] + Oc1nc(-c2ccc(C(F)(F)F)cc2)nc2c1CSCC2 [XAV939] (first compound 0.4 µM, partner dose 2 µM) | 93.3 | 88.5 | 77.7 | 89 | 92.3 | 104 | 78.5 | 74.6 | 86.5 | 
C[C@@H]1CCN(C(=O)CC#N)C[C@@H]1N(C)c1ncnc2[nH]ccc12 + CC(C)CCN1c2nc(Nc3cc(F)c(O)c(F)c3)ncc2N(C)C(=O)C1C [BID1870] (first compound 1 µM, partner dose 0.2 µM) | 96.2 | 99.9 | 100 | 98.6 | 74.6 | 92.4 | 104 | 96.3 | 85.3 | 
O=c1[nH]nc(Sc2ncc([N+](=O)[O-])s2)n1-c1ccc2c(c1)OCCO2 + CCN(CC)CCNC(=O)c1c(C)[nH]c(/C=C2\C(=O)Nc3ccc(F)cc32)c1C [sunitinib] (first compound 0.2 µM, partner dose 0.4 µM) | 105 | 86.3 | 93 | 106 | 103 | 74.7 |  |  | 86.9 | 102
Cn1cncc1[C@@](N)(c1ccc(Cl)cc1)c1ccc2c(c1)c(-c1cccc(Cl)c1)cc(=O)n2C [tipifarnib] + Oc1nc(-c2ccc(C(F)(F)F)cc2)nc2c1CSCC2 [XAV939] (first compound 0.01 µM, partner dose 2 µM) | 97.9 | 97.6 | 82.3 | 89.4 | 87 | 107 | 85.7 | 77.7 | 82.4 | 
O=c1[nH]nc(Sc2ncc([N+](=O)[O-])s2)n1-c1ccc2c(c1)OCCO2 + Nc1ccn([C@@H]2O[C@H](CO)[C@@H](O)C2(F)F)c(=O)n1 [gemcitabine] (first compound 0.2 µM, partner dose 0.0004 µM) | 95.9 | 92.3 | 102 | 136 | 79.8 | 87.8 |  |  | 103 | 87.8
